{"source": "the supplement of paper PMC8728848", "assay_in_all_cases": "glycan array binding signal (z-score within array); higher = stronger binding", "conditions_in_all_cases": "glycan notation: IUPAC condensed, linker removed", "key": {"[1]": {"molecular_target": "GlcA(b1-3)Gal", "in_short": "(§1)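 Glycan array binding is given as a within-array Z-score, which can be read as non-binding when negative. The arrays, 3228 of them, came from the Consortium for Functional Glycomics database and were retained only where the protein sequence was available. Z-scores were averaged across arrays of the same protein sequence at different concentrations or buffers and across linkers.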"}, "[2]": {"molecular_target": "GlcA(b1-3)GlcNAc", "in_short": "as §1"}, "[3]": {"molecular_target": "GlcA(b1-6)Gal", "in_short": "as §1"}, "[4]": {"molecular_target": "GlcA3S(b1-3)Gal(b1-4)GlcNAc(b1-2)Man", "in_short": "as §1"}, "[5]": {"molecular_target": "GlcA3S(b1-3)Gal(b1-4)GlcNAc(b1-3)Gal(b1-4)Glc", "in_short": "as §1"}, "[6]": {"molecular_target": "GlcNAc(a1-3)Gal(b1-4)GlcNAc", "in_short": "as §1"}, "[7]": {"molecular_target": "GlcNAc(a1-4)Gal(b1-3)GlcNAc", "in_short": "as §1"}, "[8]": {"molecular_target": "GlcNAc(a1-4)Gal(b1-4)GalNAc", "in_short": "as §1"}, "[9]": {"molecular_target": "GlcNAc(a1-4)Gal(b1-4)GlcNAc", "in_short": "as §1"}, "[10]": {"molecular_target": "GlcNAc(a1-4)Gal(b1-4)GlcNAc(b1-3)Gal(b1-4)Glc", "in_short": "as §1"}, "[11]": {"molecular_target": "GlcNAc(a1-4)Gal(b1-4)GlcNAc(b1-3)Gal(b1-4)GlcNAc", "in_short": "as §1"}, "[12]": {"molecular_target": "GlcNAc(a1-4)Gal(b1-4)GlcNAc(b1-3)Gal(b1-4)GlcNAc(b1-3)Gal(b1-4)GlcNAc", "in_short": "as §1"}, "[13]": {"molecular_target": "GlcNAc(a1-4)Gal(b1-4)GlcNAc(b1-3)Gal(b1-4)[Fuc(a1-3)]GlcNAc(b1-3)Gal(b1-4)[Fuc(a1-3)]GlcNAc", "in_short": "as §1"}, "[14]": {"molecular_target": "GlcNAc(a1-6)Gal(b1-4)GlcNAc", "in_short": "as §1"}, "[15]": {"molecular_target": "GlcNAc(b1-2)Gal(b1-3)GalNAc", "in_short": "as §1"}, "[16]": {"molecular_target": "GlcNAc(b1-2)Man(a1-3)[GlcNAc(b1-2)Man(a1-6)]Man(b1-4)GlcNAc(b1-4)GlcNAc", "in_short": "as §1"}, "[17]": {"molecular_target": "GlcNAc(b1-2)Man(a1-3)[GlcNAc(b1-2)Man(a1-6)]Man(b1-4)GlcNAc(b1-4)[Fuc(a1-6)]GlcNAc", "in_short": "as §1"}, "[18]": {"molecular_target": "GlcNAc(b1-2)Man(a1-3)[GlcNAc(b1-4)][GlcNAc(b1-2)Man(a1-6)]Man(b1-4)GlcNAc(b1-4)GlcNAc", "in_short": "as §1"}, "[19]": {"molecular_target": "GlcNAc(b1-2)Man(a1-3)[GlcNAc(b1-4)][GlcNAc(b1-2)Man(a1-6)]Man(b1-4)GlcNAc(b1-4)[Fuc(a1-6)]GlcNAc", "in_short": "as §1"}, "[20]": {"molecular_target": "GlcNAc(b1-2)[GlcNAc(b1-4)]Man(a1-3)[GlcNAc(b1-2)Man(a1-6)]Man(b1-4)GlcNAc(b1-4)GlcNAc", "in_short": "as §1"}, "[21]": {"molecular_target": "GlcNAc(b1-2)[GlcNAc(b1-4)]Man(a1-3)[GlcNAc(b1-4)][GlcNAc(b1-2)Man(a1-6)]Man(b1-4)GlcNAc(b1-4)GlcNAc", "in_short": "as §1"}, "[22]": {"molecular_target": "GlcNAc(b1-2)[GlcNAc(b1-4)]Man(a1-3)[GlcNAc(b1-4)][GlcNAc(b1-2)[GlcNAc(b1-6)]Man(a1-6)]Man(b1-4)GlcNAc(b1-4)GlcNAc", "in_short": "as §1"}, "[23]": {"molecular_target": "GlcNAc(b1-2)[GlcNAc(b1-4)]Man(a1-3)[GlcNAc(b1-4)][GlcNAc(b1-2)[GlcNAc(b1-6)]Man(a1-6)]Man(b1-4)GlcNAc(b1-4)[Fuc(a1-6)]GlcNAc", "in_short": "as §1"}, "[24]": {"molecular_target": "GlcNAc(b1-2)[GlcNAc(b1-6)]Man(a1-6)[GlcNAc(b1-2)Man(a1-3)]Man(b1-4)GlcNAc(b1-4)GlcNAc", "in_short": "as §1"}, "[25]": {"molecular_target": "GlcNAc(b1-2)[GlcNAc(b1-6)]Man(a1-6)[GlcNAc(b1-2)Man(a1-3)]Man(b1-4)GlcNAc(b1-4)[Fuc(a1-6)]GlcNAc", "in_short": "as §1"}, "[26]": {"molecular_target": "GlcNAc(b1-2)[GlcNAc(b1-6)]Man(a1-6)[GlcNAc(b1-4)][GlcNAc(b1-2)Man(a1-3)]Man(b1-4)GlcNAc(b1-4)GlcNAc", "in_short": "as §1"}, "[27]": {"molecular_target": "GlcNAc(b1-3)Fuc", "in_short": "as §1"}, "[28]": {"molecular_target": "GlcNAc(b1-3)Gal", "in_short": "as §1"}, "[29]": {"molecular_target": "GlcNAc(b1-3)Gal(b1-3)GalNAc", "in_short": "as §1"}, "[30]": {"molecular_target": "GlcNAc(b1-3)Gal(b1-4)Glc", "in_short": "as §1"}, "[31]": {"molecular_target": "GlcNAc(b1-3)Gal(b1-4)GlcNAc", "in_short": "as §1"}, "[32]": {"molecular_target": "GlcNAc(b1-3)Gal(b1-4)GlcNAc(b1-2)Man(a1-3)[GlcNAc(b1-3)Gal(b1-4)GlcNAc(b1-2)Man(a1-6)]Man(b1-4)GlcNAc(b1-4)GlcNAc", "in_short": "as §1"}, "[33]": {"molecular_target": "GlcNAc(b1-3)Gal(b1-4)GlcNAc(b1-2)Man(a1-3)[GlcNAc(b1-3)Gal(b1-4)GlcNAc(b1-2)Man(a1-6)]Man(b1-4)GlcNAc(b1-4)[Fuc(a1-6)]GlcNAc", "in_short": "as §1"}, "[34]": {"molecular_target": "GlcNAc(b1-3)Gal(b1-4)GlcNAc(b1-2)[GlcNAc(b1-3)Gal(b1-4)GlcNAc(b1-6)]Man(a1-6)[GlcNAc(b1-3)Gal(b1-4)GlcNAc(b1-2)Man(a1-3)]Man(b1-4)GlcNAc(b1-4)GlcNAc", "in_short": "as §1"}, "[35]": {"molecular_target": "GlcNAc(b1-3)Gal(b1-4)GlcNAc(b1-3)Gal(b1-4)GlcNAc", "in_short": "as §1"}, "[36]": {"molecular_target": "GlcNAc(b1-3)Gal(b1-4)GlcNAc(b1-3)Gal(b1-4)GlcNAc(b1-2)Man(a1-3)[GlcNAc(b1-3)Gal(b1-4)GlcNAc(b1-3)Gal(b1-4)GlcNAc(b1-2)Man(a1-6)]Man(b1-4)GlcNAc(b1-4)GlcNAc", "in_short": "as §1"}, "[37]": {"molecular_target": "GlcNAc(b1-3)Gal(b1-4)GlcNAc(b1-3)Gal(b1-4)GlcNAc(b1-2)Man(a1-3)[GlcNAc(b1-3)Gal(b1-4)GlcNAc(b1-3)Gal(b1-4)GlcNAc(b1-2)Man(a1-6)]Man(b1-4)GlcNAc(b1-4)[Fuc(a1-6)]GlcNAc", "in_short": "as §1"}}, "note": "The list shows a part of the results.", "data": [{"binder": "FliD (Clostridium difficile) (protein) MSSISPVRVTGLSGNFDMEGIIEASMIRDKEKVNKAKQDQQIVKWKQEIYRDIIKESKNLYDKYLNGDSPNSITNKKAYSATRITSSDESIIVAKGSAGAEKINYQFAVSQMAEPAKVTIKLNSSDPIVQQFPPNASGASSLNIGGVNIPISEQDTTSTIVSKINSLCADNDIRASYSEMTGELIISRKQTGSSSDIDLKVIGNDSLAGQIASDNGITFTTDASGTKSAVVYGKNLEADVTDDQGRVTHISKEQNSFKIDNIDYNVNSKGSAKLVSVTDTEEATKNMKAFVDDYNALMDKVYGLVTTKKSKDYPPLTDEQKDDMTTEEIEKWEKKAKEGILRNDDELRAFVEDIQSMFFGDADTIIALRKLGISEHENYNKKGQISFNADTFSKALIDDSDKVYKALAGYSSNYDDKGMFEKLKKIVFEYSGSSASKLTKKAGMENSSSASQNVYSKQIAEQERNISRLVEKMNDKEKRLYAKYSALESLLNKYSSQMNYFSQAQGN", "values": [{"measurement": "glycan array binding signal (z-score)", "setting": "[1]", "value": -0.195}, {"measurement": "glycan array binding signal (z-score)", "setting": "[2]", "value": -0.112}, {"measurement": "glycan array binding signal (z-score)", "setting": "[3]", "value": 0.617}, {"measurement": "glycan array binding signal (z-score)", "setting": "[4]", "value": -0.218}, {"measurement": "glycan array binding signal (z-score)", "setting": "[5]", "value": -0.273}, {"measurement": "glycan array binding signal (z-score)", "setting": "[6]", "value": -0.183}, {"measurement": "glycan array binding signal (z-score)", "setting": "[7]", "value": -0.073}, {"measurement": "glycan array binding signal (z-score)", "setting": "[8]", "value": -0.259}, {"measurement": "glycan array binding signal (z-score)", "setting": "[9]", "value": -0.21}, {"measurement": "glycan array binding signal (z-score)", "setting": "[10]", "value": -0.163}, {"measurement": "glycan array binding signal (z-score)", "setting": "[11]", "value": -0.211}, {"measurement": "glycan array binding signal (z-score)", "setting": "[12]", "value": -0.23}, {"measurement": "glycan array binding signal (z-score)", "setting": "[13]", "value": -0.204}, {"measurement": "glycan array binding signal (z-score)", "setting": "[14]", "value": -0.229}, {"measurement": "glycan array binding signal (z-score)", "setting": "[15]", "value": -0.207}, {"measurement": "glycan array binding signal (z-score)", "setting": "[16]", "value": -0.211}, {"measurement": "glycan array binding signal (z-score)", "setting": "[17]", "value": -0.212}, {"measurement": "glycan array binding signal (z-score)", "setting": "[18]", "value": -0.255}, {"measurement": "glycan array binding signal (z-score)", "setting": "[19]", "value": -0.174}, {"measurement": "glycan array binding signal (z-score)", "setting": "[20]", "value": -0.263}, {"measurement": "glycan array binding signal (z-score)", "setting": "[21]", "value": -0.264}, {"measurement": "glycan array binding signal (z-score)", "setting": "[22]", "value": -0.264}, {"measurement": "glycan array binding signal (z-score)", "setting": "[23]", "value": -0.261}, {"measurement": "glycan array binding signal (z-score)", "setting": "[24]", "value": -0.225}, {"measurement": "glycan array binding signal (z-score)", "setting": "[25]", "value": -0.109}, {"measurement": "glycan array binding signal (z-score)", "setting": "[26]", "value": -0.219}, {"measurement": "glycan array binding signal (z-score)", "setting": "[27]", "value": -0.089}, {"measurement": "glycan array binding signal (z-score)", "setting": "[28]", "value": -0.157}, {"measurement": "glycan array binding signal (z-score)", "setting": "[29]", "value": -0.135}, {"measurement": "glycan array binding signal (z-score)", "setting": "[30]", "value": -0.194}, {"measurement": "glycan array binding signal (z-score)", "setting": "[31]", "value": -0.247}, {"measurement": "glycan array binding signal (z-score)", "setting": "[32]", "value": -0.078}, {"measurement": "glycan array binding signal (z-score)", "setting": "[33]", "value": -0.232}, {"measurement": "glycan array binding signal (z-score)", "setting": "[34]", "value": 0.02}, {"measurement": "glycan array binding signal (z-score)", "setting": "[35]", "value": -0.223}, {"measurement": "glycan array binding signal (z-score)", "setting": "[36]", "value": 0.337}, {"measurement": "glycan array binding signal (z-score)", "setting": "[37]", "value": -0.112}]}]}
